The results in this text go back to PubChem BioAssay (NCI).

This test has as its system NCI-H322M lung. The test can be described thus: DTP human tumour cell line panel, 48 h.

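Interpolation was linear, between the two tested concentrations surrounding the appropriate level; five concentrations were tested over 48 hours in 96-well plates. GI50 marks 50% less growth. TGI is the concentration that stops growth completely.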

The GI50 is the concentration giving 50% growth inhibition. A word on the TGI: it is the concentration at which net growth stops. Higher therefore signals less potent growth arrest.

As for `CCO/C=N/C1=C(C#N)C(c2ccc(Cl)cc2)c2sc3c(CC)cccc3c2O1` (centres undefined), the GI50 is 5.35 µM and the total growth inhibition concentration (TGI) worked out at 19.1 µM.

Regarding `CCNC(=O)Oc1ccc(/C(=C(/C)c2ccc(OC)cc2)c2ccc(OCCN3CCCCCC3)cc2)cc1`, the GI50 is 6.61 µM and the TGI was found to be 13 µM.
